For 22 molecules, binding signal results are on record in PMC12136788.

This is one part of the list.

T1: UNK ZnF1-3 (human, UniProt Q9C0B0 31-174)
T1 sequence: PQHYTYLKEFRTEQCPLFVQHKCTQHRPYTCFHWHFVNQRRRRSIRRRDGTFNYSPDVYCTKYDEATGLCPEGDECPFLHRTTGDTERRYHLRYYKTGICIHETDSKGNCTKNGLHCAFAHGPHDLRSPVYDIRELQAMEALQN

B1: chr5:140076784:140076785:+_ENSG00000112855_ENST00000230771|hu_hu|motif|central (ssRNA)
RNA: GGGAGUUCUACAGUCCGACGAUCCCCAGCCUGAGUUGGGGUCUGCAGCAGCACUGCUUCAUAGAUCACUCCUGUAUAGUAGUCGGGGCCCCGAGCCAGGCUGAGGUCAAAGGAGAUCUUAUCAGCAAUUCCAAAUAAAGUCAGCAACAGAGGAUUGAGCAUCA
B2: chr17:6138058:6138059:+_ENSMUSG00000034377_ENSMUST00000152672|mus_mus|FALSE|FALSE (ssRNA)
RNA: GGGAGUUCUACAGUCCGACGAUCAAGCCCUUCCCUCAAGCAGAGGUGGAGGCCUGCGGGUCACUGAGUAUGAAUAAACUGCUAUCUAAAUGGACCAAGUAGUUUCCUCAGUUUGGUCCUACUUCUUGCUUACACAGACUAGGCCAACAGAGGAUUGAGCAUCA
B3: chrX:123197699:123197700:+_ENSG00000101972_ENST00000371157|hu_hu|FALSE|FALSE (ssRNA)
RNA: GGGAGUUCUACAGUCCGACGAUCUGUGUGCUUCUCUACAAUAUUCCGGAUCUGUCGCAAUAAGGCAUCCAAAUGCUUUUCUAAUCGUCCAGUGGUAUAUAUUUCCAAAUCAAAGUACUGAGGCAACUGCAACAAGUUAGUCACCAACAGAGGAUUGAGCAUCA
B4: chr6:128323885:128323886:+_ENSMUSG00000001517_ENSMUST00000073316|mus_mus|FALSE|FALSE (ssRNA)
RNA: GGGAGUUCUACAGUCCGACGAUCAGGGUCCUCCUCCAGGCCAGGGAAACUGAUGUCUAGAAGGAUCUUGCUGAGGCUAUCAUUCAUUGUGUCCAGGACAAGGCCUUCUGUGAGAGAACGGUUGGCUGAAAGGCUGGGAAUCUGCAACAGAGGAUUGAGCAUCA
B5: chr15:55677894:55677895:-_ENSG00000260916_ENST00000569205|hu_hu|motif|central (ssRNA)
RNA: GGGAGUUCUACAGUCCGACGAUCUGAACAUUCUGGGGCGGGCUCACAGCUGUCAGUGGGGGUCACAGAAUUCAACAUUUCGGUAUCUGACCCCUCAUGACUGAUGACAGUCCAACCACAAGAUGAAUCACUGUCACUGGAAUUCAACAGAGGAUUGAGCAUCA
B6: chr1:21151686:21151687:-_ENSG00000075151_ENST00000400422|hu_mus|FALSE|FALSE (ssRNA)
RNA: GGGAGUUCUACAGUCCGACGAUCUAAAAAGUCCUUCCAGCUGAGGUCAGCCUCCCUCCACAGGGCGCCUACUUUCUUAUGGCUCAUUUGUCUGCAUAGAAGGUGUAGGAUUUCAGAAAGCAGGACCCCAGCUCUGCCAACAGGCAACAGAGGAUUGAGCAUCA
B7: chr16:22014287:22014288:+_ENSMUSG00000022855_ENSMUST00000023561|mus_hu|FALSE|FALSE (ssRNA)
RNA: GGGAGUUCUACAGUCCGACGAUCAGAGUUCGAAAAUACCUCUCCUGAAGGGGCCACAUUCCGUGUUCCAUUACAAGCAGAAGUUACCAUGGGCUUUGUGGUCAGCUGGAAUGGGAAUCCAAAUAAGCUGGCAGCAUUGUAGAGCAACAGAGGAUUGAGCAUCA
B8: chr13:85337103:85337104:+_ENSMUSG00000021548_ENSMUST00000022030|mus_hu|FALSE|FALSE (ssRNA)
RNA: GGGAGUUCUACAGUCCGACGAUCGUCGAUGAGGAAGCCCUCAAAUGGUCUGUAAGGAUUGUGGACAAUAAGGUGGAAAUUAAGUUGCUGUAUAAGAAGUAGUUCAUAUUCCAGUAUCUGUUCAAGUGCCUUCUCCUGUCCAAGCAACAGAGGAUUGAGCAUCA
B9: 134435293_134446391_554_3pUTR_ENSMUSG00000034723_ENSMUST00000038228|mouse|control|control (ssRNA)
RNA: GGGAGUUCUACAGUCCGACGAUCACCAGCCAUUCCAGACAUCGUUAGAGAGGCUGGGGACUUCCAGCCAGUGAGAGGCUCAACUGAUUGCCAUUUCUUCUCUAAUAUGUAAUUCUGUAAAUCUUCAUAGAUUCCUGGACCACGCAACAGAGGAUUGAGCAUCA
B10: chr2:78712580:78712581:+_ENSMUSG00000027011_ENSMUST00000028398|mus_hu|motif|central (ssRNA)
RNA: GGGAGUUCUACAGUCCGACGAUCAUUAGGAGGAGGAUCAAGGGUUAUUUCAGCUAGCUCCUUCUGAAUUCUUUUAGCACGGGUGGAUAACUUAGCAGUGGUUUUGCUAGAGAGUUUGGUGUUUUUCUUCUGCUGGGUGGCAGACAACAGAGGAUUGAGCAUCA
B11: chr2:203071746:203071747:-_ENSG00000116030_ENST00000392246|hu_mus|FALSE|FALSE (ssRNA)
RNA: GGGAGUUCUACAGUCCGACGAUCCACAAACCUGAAAAUGCACAGUCCUGAAAAGGGUGGCCUCUCUGUGCACACAUGAAAUCUCUUAAAGGAAAAAGGGCAGUAUUAAGGGAGCUGAGGUCUGAUCACCAAAAAUCAGCACAACAACAGAGGAUUGAGCAUCA
B12: chr4:41262718:41262719:+_ENSG00000154277_ENST00000284440|perfect_dup|FALSE|FALSE (ssRNA)
RNA: GGGAGUUCUACAGUCCGACGAUCCCCGAUGGUACCACAGGAGUUUCCGAUGGUCUGCUUCAUGAAGUAAACUUUAGGGCUAACUUCCUGUCCCUUCAGUUCCUCAAUUUGCUUUUUCCUGAAGUUUUCAUGCUGGGCCGUGAGCAACAGAGGAUUGAGCAUCA
B13: 13578621_13578741_1134_3pUTR_ENSMUSG00000042742_ENSMUST00000045235|mouse|control|control (ssRNA)
RNA: GGGAGUUCUACAGUCCGACGAUCGAAGUGUUAGAAUACUCCUCCUCUUCUACACUGUUGAAAUCUUGAGGAAUAUACAACAUCCCUGGAUAGUUCCUGCUAACCAAGUCACUUGUGGUUUUAAGGGAGGUUUUUCUAAAAGCCCAACAGAGGAUUGAGCAUCA
B14: 91870421_91871422_641_CDS_ENSG00000001631_ENST00000394505|human|control|control (ssRNA)
RNA: GGGAGUUCUACAGUCCGACGAUCUCUCUUUUUUUUCUGUCCUUCAAUGGGAACUUCAUGCAACAAAAUUUCAUAUGACUUAGCUCUGUAUUCCCGAGAAUUGAGACUGGCAGUAUUCUUUGGACGAAUAACAGCAACAUAUGCCAACAGAGGAUUGAGCAUCA
B15: chr7:109302599:109302600:-_ENSMUSG00000063550_ENSMUST00000070165|mus_mus|motif|central (ssRNA)
RNA: GGGAGUUCUACAGUCCGACGAUCAGAGUCAUCUUCUCCAUCCUGCUGAUUGUUCUCAUCAACAGGUUUGCUCAGGAAGCGGAAUCUUUCUCCAUUUUCUGGAUACUCAGAGGGUGAAGCUAGAUCUUCUGAAUCAUGAUUAACCAACAGAGGAUUGAGCAUCA
B16: chr2:198365819:198365820:+_ENSG00000115541_ENST00000409468|hu_mus|motif|central (ssRNA)
RNA: GGGAGUUCUACAGUCCGACGAUCAGUUUCGGCAGCACUCCUUUCAACCAAUACUCUGUCAAAGAGCGGAAGAAACUUCCGGAAAGCUUGUCCAGCCAUGACUCUCGCCUUCGCCGCCACCACCGCAGCUCCGGACUCUGAACUCAACAGAGGAUUGAGCAUCA
B17: chr9:100852126:100852127:+_ENSMUSG00000037286_ENSMUST00000129269|mus_mus|motif|central (ssRNA)
RNA: GGGAGUUCUACAGUCCGACGAUCGCCAUGCUCAGACUCAGGUUCCUGAAUCUGCUCUCCCAUGGGACGGCUGUUUUCUCGGAGUACCGUGGAGGUGAGCUGUGGGGUUGGCAAGGGUCCAGGAGUCUGAAUCAUCGUGUCAGUCAACAGAGGAUUGAGCAUCA
B18: chr9:15470827:15470828:-_ENSG00000164985_ENST00000397519|hu_mus|motif|central (ssRNA)
RNA: GGGAGUUCUACAGUCCGACGAUCGUCAAGGGCACACCUGCCCCAGUUUUCAAGAACGUAAUAGCUACUCCAGUUUAAUACCGGGCUUCAAAACAAAAUGAUUUUCAUAUUCUCUAAGUGAGAUAAUGUACAGUCGCCGUCUUCCAACAGAGGAUUGAGCAUCA
B19: chr19:16212804:16212805:+_ENSG00000167460_ENST00000300933|hu_mus|hu_hu_hu_mus_False|88_88 (ssRNA)
RNA: GGGAGUUCUACAGUCCGACGAUCAACAAUUCUGGAGUGAAGGAAAGCAUCAAGGAUGAACAGCAUUAAAGCUCAGUCAGAAGGCACAUGGGCAACAAUGAUCACCCCAGCAUUCUCGCUUGGAAUGCUUAAAGACAAUCUGUUCAACAGAGGAUUGAGCAUCA
B20: chr2:126738436:126738437:-_ENSMUSG00000027366_ENSMUST00000028844|mus_hu|motif|central (ssRNA)
RNA: GGGAGUUCUACAGUCCGACGAUCAGGCAUGAGGCACACACUCAUUACUGAGAAAUAGAUCAGUUUUGGUACUCUGAUGACGGCUGGCAACUUUUCAUUAUUUCCAAAAGGUCCAGCUGCGAGUUCAACCAUGAUACUCUCACCCAACAGAGGAUUGAGCAUCA
B21: 120834331_120834451_773_CDS_ENSMUSG00000025162_ENSMUST00000018274|mouse|control|control (ssRNA)
RNA: GGGAGUUCUACAGUCCGACGAUCCUUGUUCUCUCGAUAGGGGAUAUGCUGGUGGGUGCGUGCAUCCCGAUACUUCUUGGCCAGCCCAAAGUCAAUGAUGUAGACCAGGUUGCCUUUCUUUCCCAGCCCCAUGAGGAAGUUAUCCAACAGAGGAUUGAGCAUCA
B22: chr1:157179356:157179357:-_ENSMUSG00000026469_ENSMUST00000027741|perfect_dup|motif|central (ssRNA)
RNA: GGGAGUUCUACAGUCCGACGAUCCAGGAUUAGACUGAGGUAGAACUCACUGAAGGCCAGUUUAAGGUCUUUAAUAUUUCGGUGUUGGACACGUUCCUCAUGGGACAAGUGGAAGACUGGCUUUCUGCGUUGUCGCAGCGUAGUCAACAGAGGAUUGAGCAUCA

The target of this experiment is T1, UNK ZnF1-3. In words: nsRBNS (natural sequence RNA bind-n-seq); RBNS binding buffer (assumed for nsRBNS): 25 mM Tris pH 7.5, 150 mM KCl, 3 mM MgCl2, 0.01% Triton X-100, 500 ug/ml BSA, 20 U/ml SUPERase-In, 4 C; UNK is unkempt and MSI1 is Musashi-1; names of the RNAs are library labels; protein concentration not given here; high values mean tight binding.
In the case of B1, the binding signal was 0.57 enrichment R.

Turning to B2, the binding signal was determined as 0.75 enrichment R.

Molecule B3 gave a binding signal of 1.52 enrichment R.

In turn, B4 came in with a binding signal of 1 enrichment R.

As to B5, the binding signal turned out to be 0.589 enrichment R.

Molecule B6 gave a binding signal of 0.773 enrichment R.

Molecule B7 registered a binding signal of 1.29 enrichment R.

B8 yielded a binding signal of 1.26 enrichment R.

For the molecule B9, the binding signal is 1.17 enrichment R.

B10 yielded a binding signal of 1.2 enrichment R.

Regarding B11, the binding signal turned out to be 1.72 enrichment R.

Regarding B12, the binding signal was 0.857 enrichment R.

With B13, the binding signal is 0.814 enrichment R.

For B14, the binding signal worked out at 1.16 enrichment R.

For B15, the binding signal worked out at 0.527 enrichment R.

B16: the binding signal turned out to be 1.34 enrichment R.

With B17, the binding signal stood at 1.04 enrichment R.

Molecule B18 showed a binding signal of 0.677 enrichment R.

The molecule B19 showed a binding signal of 1.5 enrichment R.

In turn, B20 had a binding signal of 1.22 enrichment R.

For the molecule B21, the binding signal was 0.756 enrichment R.

B22: the binding signal was determined as 0.832 enrichment R.
